Experimental findings from paper PMC4336329 (PLoS ONE, 2015) are described below.

The whole screen tested about 310,000 compounds, of which about 2,200 (0.71%) showed an effect of 50% or more. Effects have a minus sign here. The list shows a part of the results.

human ether-à-go-go-related gene (hERG) potassium channel, sequence (Q12809 whole entry, looked up): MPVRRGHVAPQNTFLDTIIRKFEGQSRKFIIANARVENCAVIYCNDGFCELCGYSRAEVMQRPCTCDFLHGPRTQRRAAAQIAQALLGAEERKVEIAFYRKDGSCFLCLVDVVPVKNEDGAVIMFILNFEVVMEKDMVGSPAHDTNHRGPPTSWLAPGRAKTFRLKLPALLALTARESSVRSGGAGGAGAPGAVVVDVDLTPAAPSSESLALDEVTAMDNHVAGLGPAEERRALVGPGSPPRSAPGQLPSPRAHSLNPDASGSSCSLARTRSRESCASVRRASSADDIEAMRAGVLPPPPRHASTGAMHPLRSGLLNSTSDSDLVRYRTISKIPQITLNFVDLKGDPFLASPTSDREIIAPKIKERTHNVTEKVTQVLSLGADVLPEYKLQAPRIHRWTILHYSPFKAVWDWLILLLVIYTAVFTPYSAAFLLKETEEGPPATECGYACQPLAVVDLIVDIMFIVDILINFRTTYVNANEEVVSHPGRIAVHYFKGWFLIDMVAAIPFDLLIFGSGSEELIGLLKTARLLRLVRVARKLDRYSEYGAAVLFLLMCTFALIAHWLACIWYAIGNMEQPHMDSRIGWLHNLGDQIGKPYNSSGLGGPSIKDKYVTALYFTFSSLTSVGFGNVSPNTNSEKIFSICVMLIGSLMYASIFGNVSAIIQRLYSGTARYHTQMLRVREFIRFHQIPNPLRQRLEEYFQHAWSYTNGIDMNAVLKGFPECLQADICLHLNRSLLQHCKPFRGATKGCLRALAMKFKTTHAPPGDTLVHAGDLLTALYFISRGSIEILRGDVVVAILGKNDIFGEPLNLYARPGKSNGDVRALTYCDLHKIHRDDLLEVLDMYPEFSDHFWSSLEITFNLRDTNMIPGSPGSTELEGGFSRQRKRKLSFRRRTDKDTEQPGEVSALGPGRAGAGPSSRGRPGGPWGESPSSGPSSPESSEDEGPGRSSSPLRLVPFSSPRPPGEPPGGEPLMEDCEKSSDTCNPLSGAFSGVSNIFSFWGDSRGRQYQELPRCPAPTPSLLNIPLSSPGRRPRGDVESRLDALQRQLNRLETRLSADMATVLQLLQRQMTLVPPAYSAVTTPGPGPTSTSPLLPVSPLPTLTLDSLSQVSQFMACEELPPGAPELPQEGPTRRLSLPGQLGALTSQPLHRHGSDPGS

This assay addresses human ether-à-go-go-related gene (hERG) potassium channel (human, UniProt Q12809). The assay is described as follows: primary screen, population patch clamp on CHO cells stably expressing hERG.
For `CCOC(=O)c1c(NC(=O)CSc2nc3ccc(OC)cc3[nH]2)sc2c1CC(C)(C)NC2(C)C`, the “hERG current change (%, negative = inhibition) at 1uM” value is on record as 6.37%.

Regarding `O=C(NCCc1nnc2ccc(N3CCCCCC3)nn12)c1ccccc1F`, the “hERG current change (%, negative = inhibition) at 1uM” value was 4.72%. On to `CN(C(=O)c1ccc(NC(=O)Cc2ccc(NC(=O)C3CCCN(C(=O)c4ccccc4)C3)cc2)cc1)C1CC1` (centres unmarked), for which the “hERG current change (%, negative = inhibition) at 1uM” value is given as 20.8%. The same measure for `O=C(NCc1cccnc1)C1CCC(CNS(=O)(=O)c2cccc3nsnc23)CC1` (centres unmarked): -10.1%; for `Cc1ccnc(NC(=O)Cc2ccc(-c3ccccc3)cc2)c1`: 8.82%; for `CS(=O)(=O)c1ccccc1-c1nc(-c2ccc([N+](=O)[O-])cc2)no1`: 7.08%. On to `CC1=C(C(=O)OCc2ccccc2)C(c2ccccc2Br)NC(=O)N1` (centres unmarked), for which the “hERG current change (%, negative = inhibition) at 1uM” value is on record as 14.2%.

Consider `CC(C)c1ccccc1NS(=O)(=O)N(C)C`, for which the “hERG current change (%, negative = inhibition) at 1uM” value was 11.2%.

With `CCN(CC)CCCNC(=O)c1cc2c(-c3cccc(OC)c3)nn(C)c2s1`, the “hERG current change (%, negative = inhibition) at 1uM” value came out at 0.205%. For the molecule `Cc1ccc(Cl)cc1N1CCN(C(=S)NCc2ccco2)CC1`, the “hERG current change (%, negative = inhibition) at 1uM” value is 12.1%. The same measure for `CCOc1ccc(-n2c(SCc3cc(=O)oc4cc(C)c(C(C)C)cc34)nnc2-c2cccnc2)cc1`: 1.81%; for `O=C(CSc1ccc2ccccc2n1)NCc1ccc2c(c1)OCO2`: 6.56%; for `Cc1c(C(=O)OCC[N+]2(C)CCCCC2)oc2ccccc12.[I-]`: 5.34%. In the case of `Fc1ccccc1N1CCN(c2ncnc3nc[nH]c23)CC1` it was 12.1%. In the case of `CCCC12CN3CC(C)(CN(C1)C31CCCCC1)C2=O` it was 10.9%.

As to `CCC1(c2ccccc2)NC(=O)N(CC(=O)Nc2ccc3c(C)cc(=O)oc3c2)C1=O` (centres unmarked), the “hERG current change (%, negative = inhibition) at 1uM” value was 19.8%. Take `O=C(CS(=O)(=O)c1ccc(F)cc1)N1CCN(c2ccccc2)CC1`: the “hERG current change (%, negative = inhibition) at 1uM” value is -9.32%.

As for `COc1cccc(/C=N/n2c(-c3cc(C)[nH]n3)n[nH]c2=S)c1O`, the “hERG current change (%, negative = inhibition) at 1uM” value was determined as 11.1%. The same measure for `Cc1ccc(N2CCN(S(=O)(=O)c3ccc(Cl)s3)CC2C)cc1` (centres unmarked): 8.44%.

`Cc1ccc(S(=O)(=O)N2CCN(C(=S)NCc3ccc4c(c3)OCO4)CC2)cc1`: the “hERG current change (%, negative = inhibition) at 1uM” value turned out to be 1.69%. In the case of `Cc1nn(CCC#N)c2nc(C(F)(F)F)[nH]c(=O)c12` it was -5.04%. The same measure for `COc1ccc(N=Cc2ccc(-c3ccccc3)o2)cc1`: 11%; for `CCOc1ccccc1N(CC(=O)NCCSc1ccccc1)S(C)(=O)=O`: 8.63%; for `CCCOC(=O)/C=C/c1c(C)[nH]c(=O)[nH]c1=O`: 1.11%. In the case of `Cc1ccc(NC(=S)NCc2ccc(Cl)cc2)c(OC(F)F)c1` it was 4.09%; in that of `CC(=O)Nc1ccc(Oc2sc(C(=O)c3ccccc3)c(N)c2C#N)cc1`, 9.56%; in that of `CCOc1ccc(C(=O)Nc2nnc(S(=O)(=O)N3CCCCC3)s2)cc1`, 13.4%. `CC(C)[C@H](NC(=O)c1ccco1)C(=O)NCc1ccccc1`: the “hERG current change (%, negative = inhibition) at 1uM” value amounted to 16.9%. In the case of `CC(=O)Oc1c(C)c(=O)n(C)c2ccccc12` it was 7.71%; in that of `COc1ccc(Nc2nc(-c3sc(N)nc3C)cs2)cc1`, 17.4%. Regarding `C(=N\Nc1nc2ccccc2s1)/c1ccco1`, the “hERG current change (%, negative = inhibition) at 1uM” value stood at 8.41%. Take `CC1=NN(C(=O)c2ccc(Cn3nc(C)c(Br)c3C)cc2)C(O)(C(F)(F)F)C1` (centres unmarked): the “hERG current change (%, negative = inhibition) at 1uM” value was 12.1%. With `O=c1[nH][nH]c(=O)c2c(NS(=O)(=O)c3ccccc3)cccc12`, the “hERG current change (%, negative = inhibition) at 1uM” value worked out at 18.2%. In the case of `COc1cccc(CSc2nnnn2-c2ccc(O)cc2)c1` it was 0.827%; in that of `Cc1cc(S(=O)(=O)NCc2ccc(N3CCN(C)CC3)cc2)c(C)s1`, -1.23%. For `O=C(C1CC(c2ccc(F)cc2)=NO1)N1CCN(Cc2ccccc2)CC1` (centres unmarked), the “hERG current change (%, negative = inhibition) at 1uM” value is on record as -7.94%. The same measure for `Cc1c(O)ccc2c(O)c(NC(=O)c3ccc4c(c3)CCC(C)(C)O4)c(=O)oc12`: 16.7%; for `O=S(=O)(NC(=S)c1ccccc1)c1ccccc1`: 10.8%; for `CC(C(=O)Nc1ccc2c(c1)OCO2)N1CCC(N2CCCCC2)CC1.O=C(O)C(=O)O` (centres unmarked): 11.9%. The same measure for `O=C(Oc1ccc(NC2=NS(=O)(=O)c3ccccc32)cc1)c1cccnc1`: 9.43%; for `CCOc1ccc(/C=N/n2c(COc3ccccc3)n[nH]c2=S)cc1OC`: 12.8%; for `Cc1cc(NC(=O)CSc2nnc(COc3ccccc3)o2)no1`: 8.73%.

Consider `Cc1cc(NC(=O)/C=C/c2cccc(F)c2)n(-c2nc3ccccc3[nH]2)n1`, for which the “hERG current change (%, negative = inhibition) at 1uM” value turned out to be 12.1%.

Regarding `Cc1ccc(NC(=O)COC(=O)C2CCC(=O)N2)c(S(=O)(=O)N2CCOCC2)c1` (centres unmarked), the “hERG current change (%, negative = inhibition) at 1uM” value was found to be 15.2%. In the case of `Cc1c(C(=O)NN2CCOCC2)oc2c1ccc1ccccc12` it was 7.77%; in that of `CN(C)S(=O)(=O)c1cccc(NC(=O)CNCC2CCCCC2)c1.O=C(O)C(=O)O`, 11.6%; in that of `COc1ccc(C(CNC(=O)CNC(=O)c2ccccc2Cl)N2CCCC2)cc1` (centres unmarked), -4.67%. In the case of `CN(CC(=O)Nc1ccccc1Br)C(=O)CCc1ccccc1` it was 12.4%; in that of `Cc1ccc(S(=O)(=O)N2CC(=O)Nc3ccccc32)cc1C`, 2.01%; in that of `COc1ccc(N(C(C)C(=O)Nc2ccc(S(=O)(=O)N3CCCCC3)cc2)S(C)(=O)=O)cc1` (centres unmarked), 15.7%.

Consider `CCCOc1ccc(/C=N/O)cc1`, for which the “hERG current change (%, negative = inhibition) at 1uM” value is given as 8.85%. The same measure for `O=S(=O)(Nc1cccc(-c2nnco2)c1)c1ccc(F)cc1F`: 16.9%; for `Cc1cc(NC(=O)CSc2nc(-c3ccc(Br)cc3)nc3c2c(=O)n(C)c(=O)n3C)no1`: -5.64%; for `Cc1cc(C)cc(Nc2cc(=O)n(C3CCCCC3)c(=O)[nH]2)c1`: 12.5%.

In the case of `CCOCc1cc(CN2CCCC(CNC(=O)c3ccco3)C2)ccc1OC` (centres unmarked), the “hERG current change (%, negative = inhibition) at 1uM” value is on record as 2.56%.

For the molecule `Cc1sc(NC(=O)C(C)C)c(C(=O)Nc2ccccc2)c1C`, the “hERG current change (%, negative = inhibition) at 1uM” value is given as 8.88%. The same measure for `O=[N+]([O-])c1ccc(/C=N/Nc2ccc3ccccc3c2)o1`: 8.66%. The same measure for `CSc1cc(N2CCOCC2)nc(-c2ccccc2Cl)n1`: 8.07%.

As to `COc1ccccc1CN1CCN(Cc2ccc3ccccc3c2)CC1.O=C(O)C(=O)O`, the “hERG current change (%, negative = inhibition) at 1uM” value was -6.96%.

On to `O=C(c1ccc2c(=O)n(Cc3ccc4c(c3)OCO4)c(=S)[nH]c2c1)N1CCC2(CC1)OCCO2`, for which the “hERG current change (%, negative = inhibition) at 1uM” value is given as -5.09%. As to `CCCCCOc1ccc(C)cc1CN(CCCl)CCCl.Cl`, the “hERG current change (%, negative = inhibition) at 1uM” value is given as 12%. Regarding `CC(=O)NC(CC(=O)NCC(=O)Nc1ccc(F)c(F)c1)c1ccccc1` (centres unmarked), the “hERG current change (%, negative = inhibition) at 1uM” value turned out to be 13.5%. In the case of `Cc1cc(C)c(S(=O)(=O)NCCOc2ccccc2)c(C)c1-n1cnnn1` it was 7.17%; in that of `Cc1cc(NC(=O)Cn2c(=O)c3c(ncn3CCC(C)C)n(Cc3ccccc3)c2=O)no1`, -1.6%. In the case of `O=C(Cc1cccs1)Nc1ccc(F)cc1F` it was 11.5%; in that of `O=C(NC(=S)N1CCCCC1c1cccnc1)c1ccc(F)cc1` (centres unmarked), 4.92%. With `O=C(CSc1nnc(CNC(=O)c2ccccc2F)o1)NCCc1ccccc1`, the “hERG current change (%, negative = inhibition) at 1uM” value is on record as 7.81%. In the case of `Clc1ccccc1OCCn1nnc2ccccc21` it was 11.5%; in that of `O=C1OCCN1CCNCc1cn(-c2ccc(F)cc2)nc1-c1ccccc1Cl`, -3.06%. The same measure for `COC(=O)CSc1nnnn1-c1ccccc1`: 17.7%; for `O=C(COC(=O)c1cc(S(=O)(=O)N2CCOCC2)ccc1O)NCCc1ccccc1`: 5.85%. In the case of `CC(=N/O)/C(C)=N\NC(=O)c1ccccn1`, the “hERG current change (%, negative = inhibition) at 1uM” value was 12.4%. On to `Cc1ccccc1NC(=O)c1ccccc1`, for which the “hERG current change (%, negative = inhibition) at 1uM” value worked out at 1.48%. In the case of `Fc1cccc(Cl)c1/C=N/Nc1c(Cl)cncc1Cl` it was 6.26%; in that of `Cc1cc(NCc2ccccc2)c2ccccc2n1.Cl`, -29.5%. The same measure for `O=C(CN(c1ccccc1)S(=O)(=O)c1ccc(F)cc1)NC1CCCCCC1`: -5%. In the case of `CCOc1cc(C)c(S(=O)(=O)Nc2ccc(F)cc2)cc1C` it was -1.66%; in that of `N#CC1=C(N)SC(N)=C(C#N)C1CCC1CCCCC1`, 6.56%. Consider `CC(Nc1cccc2ccccc12)C(=O)N/N=C/c1ccc([N+](=O)[O-])cc1` (centres unmarked), for which the “hERG current change (%, negative = inhibition) at 1uM” value is 2.64%.

In the case of `Cc1nn(Cc2cccc(C(=O)Nc3ccn(Cc4ccccc4)n3)c2)c(C)c1[N+](=O)[O-]`, the “hERG current change (%, negative = inhibition) at 1uM” value is -0.602%. In the case of `O=C1c2cccc3cccc(c23)C(=O)N1Cc1cccnc1` it was 3.02%; in that of `CCCC(=O)Nc1nc(C)c(-c2csc(Nc3ccccc3OC)n2)s1`, 11.5%; in that of `CCOC(=O)c1c(NC(=O)CSc2nnc(C)s2)sc2c1CCCCC2`, 13.1%. Take `CCOc1ccc(CCNC(=O)COC(=O)c2ccc(C)c([N+](=O)[O-])c2)cc1OCC`: the “hERG current change (%, negative = inhibition) at 1uM” value was 2.16%. As for `COC(=O)c1cc(-c2c(C)oc3cc(OC(C)C)ccc3c2=O)c(C)o1`, the “hERG current change (%, negative = inhibition) at 1uM” value is reported as 3.43%. The same measure for `OCC1(Cc2ccc(Cl)cc2)CCN(Cc2ccc(Oc3ncccn3)cc2)CC1`: -25.1%; for `COc1ccc(SC[C@H](Cc2ccccc2)N2CCN(CCc3ccccc3)CCC2=O)cc1`: -43.2%. In the case of `Nc1ccccc1NC(=O)NC(=O)c1ccccc1` it was 11.8%; in that of `CC1=[N+](C)c2ccc3ccccc3c2C1(C)C`, 3.87%.
